For assay [1], the target named is Citrine-MPDZ (multiple PDZ domain protein fused with an amino-terminal fluorescent Citrine) (UniProt O75970). The assay can be described thus: co-IP; HEK293T cells co-transfected with Citrine-MPDZ and tagged DLL1/DLL4 constructs; antibodies against Citrine precipitate Citrine-MPDZ; HA and FLAG detected by immunoblot; antibody overnight at 4°C, protein-G dynabeads.

Amino acid sequences for entries named in this document (tags omitted). A change or cut given only in a name is not applied to a line headed by its entry. Residues count along the entry.
UniProt O75970: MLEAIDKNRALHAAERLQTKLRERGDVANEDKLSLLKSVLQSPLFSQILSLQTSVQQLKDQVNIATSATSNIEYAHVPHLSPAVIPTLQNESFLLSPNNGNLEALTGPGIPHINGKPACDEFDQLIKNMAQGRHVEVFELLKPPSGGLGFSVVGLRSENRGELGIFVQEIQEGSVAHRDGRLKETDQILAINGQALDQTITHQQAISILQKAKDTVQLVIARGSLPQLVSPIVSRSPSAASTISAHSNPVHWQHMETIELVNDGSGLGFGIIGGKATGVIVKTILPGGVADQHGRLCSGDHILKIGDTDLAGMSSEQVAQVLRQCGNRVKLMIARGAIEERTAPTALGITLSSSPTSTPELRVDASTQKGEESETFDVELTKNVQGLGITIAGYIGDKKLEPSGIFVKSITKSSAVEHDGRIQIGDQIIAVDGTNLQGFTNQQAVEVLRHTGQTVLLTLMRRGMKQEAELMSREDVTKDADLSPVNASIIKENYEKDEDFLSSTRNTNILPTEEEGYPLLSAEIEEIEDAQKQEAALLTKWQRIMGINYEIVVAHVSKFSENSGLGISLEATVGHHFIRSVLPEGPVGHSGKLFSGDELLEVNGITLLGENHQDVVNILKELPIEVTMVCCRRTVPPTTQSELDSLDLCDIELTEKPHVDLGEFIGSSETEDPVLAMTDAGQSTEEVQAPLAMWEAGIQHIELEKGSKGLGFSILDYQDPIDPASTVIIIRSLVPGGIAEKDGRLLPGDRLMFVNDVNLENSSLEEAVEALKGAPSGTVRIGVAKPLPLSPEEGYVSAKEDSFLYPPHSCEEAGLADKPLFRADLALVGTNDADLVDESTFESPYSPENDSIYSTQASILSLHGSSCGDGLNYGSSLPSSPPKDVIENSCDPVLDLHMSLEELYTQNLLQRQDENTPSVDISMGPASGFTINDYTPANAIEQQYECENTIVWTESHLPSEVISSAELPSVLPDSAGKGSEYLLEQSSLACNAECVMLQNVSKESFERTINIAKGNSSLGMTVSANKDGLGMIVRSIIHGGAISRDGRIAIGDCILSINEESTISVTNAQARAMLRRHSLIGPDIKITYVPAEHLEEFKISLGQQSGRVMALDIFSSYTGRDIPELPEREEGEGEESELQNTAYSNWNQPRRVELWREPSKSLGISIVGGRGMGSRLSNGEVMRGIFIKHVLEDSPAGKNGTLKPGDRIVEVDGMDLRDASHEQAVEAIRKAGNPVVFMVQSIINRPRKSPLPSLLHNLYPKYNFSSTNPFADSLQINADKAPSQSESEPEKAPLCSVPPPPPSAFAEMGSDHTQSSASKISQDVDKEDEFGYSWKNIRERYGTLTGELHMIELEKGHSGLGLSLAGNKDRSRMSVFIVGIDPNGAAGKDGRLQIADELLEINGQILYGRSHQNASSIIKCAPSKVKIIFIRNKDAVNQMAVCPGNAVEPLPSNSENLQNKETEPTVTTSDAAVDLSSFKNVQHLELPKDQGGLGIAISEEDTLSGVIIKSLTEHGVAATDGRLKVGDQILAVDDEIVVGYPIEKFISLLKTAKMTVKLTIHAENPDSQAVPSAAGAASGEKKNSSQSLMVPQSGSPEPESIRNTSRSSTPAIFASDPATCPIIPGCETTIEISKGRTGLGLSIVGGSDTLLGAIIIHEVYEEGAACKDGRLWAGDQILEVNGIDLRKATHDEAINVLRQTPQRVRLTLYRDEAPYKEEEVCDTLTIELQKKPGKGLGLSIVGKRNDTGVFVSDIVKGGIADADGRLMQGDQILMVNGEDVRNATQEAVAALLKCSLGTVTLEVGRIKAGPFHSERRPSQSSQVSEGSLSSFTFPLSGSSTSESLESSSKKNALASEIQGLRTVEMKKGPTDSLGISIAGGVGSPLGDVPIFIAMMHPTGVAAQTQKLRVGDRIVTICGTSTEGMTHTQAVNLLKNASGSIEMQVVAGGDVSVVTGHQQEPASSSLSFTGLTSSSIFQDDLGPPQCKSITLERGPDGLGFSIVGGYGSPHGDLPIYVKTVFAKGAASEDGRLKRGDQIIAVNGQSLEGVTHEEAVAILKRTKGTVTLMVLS
UniProt Q61483, residues 18-722: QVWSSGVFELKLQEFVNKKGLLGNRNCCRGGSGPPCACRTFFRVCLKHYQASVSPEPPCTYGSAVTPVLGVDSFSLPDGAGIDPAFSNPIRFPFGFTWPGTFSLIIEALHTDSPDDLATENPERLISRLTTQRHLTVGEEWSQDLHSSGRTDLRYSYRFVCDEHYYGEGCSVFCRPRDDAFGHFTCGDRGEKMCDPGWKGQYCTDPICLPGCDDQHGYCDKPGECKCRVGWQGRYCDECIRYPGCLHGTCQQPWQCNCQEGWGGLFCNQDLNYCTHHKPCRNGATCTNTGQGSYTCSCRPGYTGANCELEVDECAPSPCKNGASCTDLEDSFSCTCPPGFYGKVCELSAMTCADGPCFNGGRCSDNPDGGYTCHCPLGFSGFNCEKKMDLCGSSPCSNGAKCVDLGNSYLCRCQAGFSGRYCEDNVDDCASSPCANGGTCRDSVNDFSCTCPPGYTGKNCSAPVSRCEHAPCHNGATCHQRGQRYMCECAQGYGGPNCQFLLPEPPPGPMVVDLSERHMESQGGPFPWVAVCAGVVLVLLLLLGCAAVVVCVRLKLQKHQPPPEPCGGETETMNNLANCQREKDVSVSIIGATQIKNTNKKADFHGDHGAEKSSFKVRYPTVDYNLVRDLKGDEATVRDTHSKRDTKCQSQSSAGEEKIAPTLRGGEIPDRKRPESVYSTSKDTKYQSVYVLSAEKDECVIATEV
UniProt Q9JI71, residues 27-686: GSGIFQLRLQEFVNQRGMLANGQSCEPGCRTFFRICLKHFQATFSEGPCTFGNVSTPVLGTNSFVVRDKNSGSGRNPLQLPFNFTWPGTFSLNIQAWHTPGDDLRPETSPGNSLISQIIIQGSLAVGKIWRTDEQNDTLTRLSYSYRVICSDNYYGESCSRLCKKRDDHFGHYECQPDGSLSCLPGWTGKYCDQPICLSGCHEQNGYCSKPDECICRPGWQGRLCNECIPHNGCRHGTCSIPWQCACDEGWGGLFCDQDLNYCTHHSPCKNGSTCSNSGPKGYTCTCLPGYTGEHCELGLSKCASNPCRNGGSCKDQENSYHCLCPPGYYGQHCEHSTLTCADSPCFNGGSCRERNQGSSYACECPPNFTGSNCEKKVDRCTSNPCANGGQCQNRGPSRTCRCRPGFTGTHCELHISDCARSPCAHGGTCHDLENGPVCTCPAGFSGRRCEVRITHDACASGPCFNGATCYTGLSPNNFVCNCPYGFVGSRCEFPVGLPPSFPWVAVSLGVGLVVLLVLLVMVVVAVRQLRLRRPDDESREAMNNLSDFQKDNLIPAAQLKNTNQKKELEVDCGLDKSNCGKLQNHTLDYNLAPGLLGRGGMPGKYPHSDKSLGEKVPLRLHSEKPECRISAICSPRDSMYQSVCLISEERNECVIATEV
UniProt O00548: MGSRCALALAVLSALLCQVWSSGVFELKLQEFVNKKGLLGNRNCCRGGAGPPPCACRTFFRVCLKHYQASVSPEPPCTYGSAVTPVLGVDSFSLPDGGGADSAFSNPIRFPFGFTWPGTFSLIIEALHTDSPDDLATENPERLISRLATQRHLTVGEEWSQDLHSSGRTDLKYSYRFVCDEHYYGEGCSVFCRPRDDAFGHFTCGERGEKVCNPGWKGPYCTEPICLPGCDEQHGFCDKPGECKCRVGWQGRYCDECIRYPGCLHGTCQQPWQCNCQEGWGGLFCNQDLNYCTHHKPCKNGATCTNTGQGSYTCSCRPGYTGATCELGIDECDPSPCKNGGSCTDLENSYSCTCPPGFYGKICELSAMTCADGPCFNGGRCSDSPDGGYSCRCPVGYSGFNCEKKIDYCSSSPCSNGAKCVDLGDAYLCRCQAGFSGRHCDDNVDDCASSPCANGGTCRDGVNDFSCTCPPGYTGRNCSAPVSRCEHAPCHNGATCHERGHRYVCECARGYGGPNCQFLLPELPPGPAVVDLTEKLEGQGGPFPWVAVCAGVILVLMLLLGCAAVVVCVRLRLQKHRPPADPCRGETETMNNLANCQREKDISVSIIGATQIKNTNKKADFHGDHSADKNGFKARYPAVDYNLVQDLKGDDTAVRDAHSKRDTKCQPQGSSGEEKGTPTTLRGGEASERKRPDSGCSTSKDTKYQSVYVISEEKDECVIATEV
UniProt Q9NR61: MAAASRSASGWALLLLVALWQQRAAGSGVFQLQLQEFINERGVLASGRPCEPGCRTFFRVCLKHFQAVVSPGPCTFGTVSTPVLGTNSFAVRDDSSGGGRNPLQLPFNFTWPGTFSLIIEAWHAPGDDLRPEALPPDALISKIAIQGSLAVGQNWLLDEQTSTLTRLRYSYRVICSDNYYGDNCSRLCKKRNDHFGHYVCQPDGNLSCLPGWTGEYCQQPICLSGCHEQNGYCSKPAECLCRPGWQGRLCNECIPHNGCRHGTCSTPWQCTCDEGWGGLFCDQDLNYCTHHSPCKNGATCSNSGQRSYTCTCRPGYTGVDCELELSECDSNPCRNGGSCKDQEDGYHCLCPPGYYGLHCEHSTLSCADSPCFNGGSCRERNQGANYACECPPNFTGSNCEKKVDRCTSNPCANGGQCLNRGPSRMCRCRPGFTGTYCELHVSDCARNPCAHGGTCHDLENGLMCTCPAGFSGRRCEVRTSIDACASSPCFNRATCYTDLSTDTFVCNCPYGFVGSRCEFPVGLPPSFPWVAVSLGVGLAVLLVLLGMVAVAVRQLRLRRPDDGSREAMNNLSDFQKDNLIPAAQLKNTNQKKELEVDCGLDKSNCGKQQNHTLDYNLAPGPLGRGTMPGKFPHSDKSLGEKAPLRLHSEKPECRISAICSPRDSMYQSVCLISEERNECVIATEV

Assay [2] has as its target Dll1 (mouse kidney) (mouse (endogenous in kidney)) (UniProt Q61483). Put plainly: co-IP; lysates of mouse kidneys; Dll1 or Dll4 precipitated with specific antibodies; Mpdz detected by immunoblot.
For assay [3], the target named is Dll4 (mouse kidney) (mouse (endogenous in kidney)) (UniProt Q9JI71). The description is as above.
The target in assay [4] is HA-tagged DLL1 (full-length) (UniProt O00548). Put plainly: co-IP; HEK293T control cells (sh-ctrl) and MPDZ-silenced HEK293T cells (sh-MPDZ) transfected with SYNJ2BP and HA-DLL1 or Flag-DLL4; DLL1 antibody or Flag antibody for precipitation; SYNJ2BP detected by Western blot.
In assay [5] the target is Flag-tagged DLL4 (full-length) (UniProt Q9NR61). The description is as above.

These are yes or no findings as the source states them, for the method shown. Binding seen in cells or lysates may run through a third protein. Some results given as binding are weak or reduced against the parent protein; the word gives no strength.

With “HA-tagged DLL1 (full-length) (from UniProt O00548 18-723)”, the binding result in assay [1] is on record as “binds”. For the molecule “Flag-tagged DLL4 (full-length) (from UniProt Q9NR61 27-685)”, the binding entry in assay [1] is listed as “binds”. For the molecule “Mpdz (mouse kidney) (from UniProt Q8VBX6 1-2055)”, the binding entry in assay [2] and in assay [3] was “binds” each time.

As for “HA-tagged DLL1ΔPDZ (DLL1 lacking the carboxyterminal PDZ-binding site, amino acids IATEV) (from UniProt O00548 18-718) (domain or fragment)”, in assay [1], the binding entry is “no binding”.

Turning to “Flag-tagged DLL4ΔPDZ (DLL4 lacking the carboxyterminal PDZ-binding site, amino acids IATEV) (from UniProt Q9NR61 27-680) (domain or fragment)”, the binding entry in assay [1] is listed as “no binding”.

B1: SYNJ2BP (protein, UniProt P57105 1-145)
chain: MNGRVDYLVTEEEINLTRGPSGLGFNIVGGTDQQYVSNDSGIYVSRIKENGAAALDGRLQEGDKILSVNGQDLKNLLHQDAVDLFRNAGYAVSLRVQHRLQVQNGPIGHRGEGDPSGIPIFMVLVPVFALTMVAAWAFMRYRQQL
With B1, the binding result in assay [4] and in assay [5] was “binds” in each case.

The values are drawn from PMC5933922.
